Measurements as given in PubChem BioAssay AID588579 (National Center for Advancing Translational Sciences (NCATS), 2011).
Values joined by “and” are separate entries in the source; they are usually repeats but may differ in a detail not shown here. Equal values may be shown once. About 2,200 (0.55%) of roughly 400,000 compounds were called active. About 1% were inconclusive and are not listed. Calls come from the whole dose curve; as a rule, active = well fitted inhibition curve with a large enough effect; inconclusive = small, poorly fitted or top-dose-only effect, or another doubt; inactive = no such curve, though single readings can be large or run the other way. This is a selection; strong and weak results do not stand in their true shares.

Molecular target: DNA polymerase kappa (Homo sapiens) (UniProt Q9UBT6)
Experiment: qHTS for Inhibitors of Polymerase Kappa
Conditions: purified Pol kappa, fluorescent DNA synthesis assay, 10 min; series mostly up to 107 µM; activity, negative = inhibition: at the top concentration
Experimental: The processing and repair of DNA interstrand crosslinks (ICL) in eukaryotic cells are extremely complex, potentially involving multiple DNA repair and damage tolerance pathways, including homologous recombination, nucleotide excision repair, translesion synthesis (TLS), and cell cycle checkpoints.
To that end, in a collaboration between the Oregon Health & Science University and the NIH Chemical Genomics Center a 1536-well high-throughput screen was developed. This fluorescent screen was assayed against the NIH Molecular Libraries Small Molecule Repository (MLSMR) to discover inhibitors of Pol Kappa.
NIH Chemical Genomics Center [NCGC]
NIH Molecular Libraries Probe Centers Network [MLPCN]
Assay Submitter (PI): Stephen Lloyd, Oregon Health & Science University
Three microliters of reagents (buffer in column 3 and 4 as negative control and 10 nM Pol kappa in columns 1, 2, and 5-48) were dispensed into a 1536-well black solid-bottom plate. Compounds (23 nL) were transferred via Kalypsys pin tool equipped with 1536-pin array. The plates were then incubated for 15 min at room temperature, and 1 uL substrate (50 nM final concentration) were then added to start the reaction and kinetically read twice at 0 min and 10 min on the Viewlux reader
% is set by controls: 0 for no effect and ±100 for the full control effect; potency is the fitted concentration of half-maximal effect.

Sequence of UniProt Q9UBT6 (Q9UBT6 whole entry, looked up): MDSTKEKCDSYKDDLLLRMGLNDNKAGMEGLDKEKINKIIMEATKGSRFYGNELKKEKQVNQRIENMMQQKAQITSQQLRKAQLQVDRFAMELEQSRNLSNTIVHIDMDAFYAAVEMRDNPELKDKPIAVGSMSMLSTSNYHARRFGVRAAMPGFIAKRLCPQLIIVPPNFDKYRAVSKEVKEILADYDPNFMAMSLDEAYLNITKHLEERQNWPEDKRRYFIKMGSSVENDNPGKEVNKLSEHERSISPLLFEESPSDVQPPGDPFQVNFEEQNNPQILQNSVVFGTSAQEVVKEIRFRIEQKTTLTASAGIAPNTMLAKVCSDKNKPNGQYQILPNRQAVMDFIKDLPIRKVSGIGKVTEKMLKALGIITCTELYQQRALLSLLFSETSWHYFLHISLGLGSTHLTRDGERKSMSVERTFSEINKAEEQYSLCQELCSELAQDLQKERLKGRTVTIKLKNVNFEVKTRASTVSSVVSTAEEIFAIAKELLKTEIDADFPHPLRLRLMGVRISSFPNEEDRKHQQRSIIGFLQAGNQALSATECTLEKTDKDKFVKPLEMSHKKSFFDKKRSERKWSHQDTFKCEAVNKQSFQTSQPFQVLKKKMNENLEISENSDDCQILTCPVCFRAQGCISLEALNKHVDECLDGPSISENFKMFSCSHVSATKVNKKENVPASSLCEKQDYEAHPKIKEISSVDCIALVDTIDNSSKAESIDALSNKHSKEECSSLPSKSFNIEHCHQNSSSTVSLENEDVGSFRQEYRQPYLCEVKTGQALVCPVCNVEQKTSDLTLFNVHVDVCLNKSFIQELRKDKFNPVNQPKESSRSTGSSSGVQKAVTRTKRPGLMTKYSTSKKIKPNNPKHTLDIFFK

SMILES | activity, negative = inhibition | Potency
O=C(C=C(O)c1ccc(Cl)cc1)C(=O)NNC(=O)C(O)(c1ccccc1)c1ccccc1 | inactive: -9.61% | –
CCOC(=O)Cn1c(=O)c2c(nc3n2CCCN3Cc2ccccc2)n(C)c1=O | inactive: -8.84% | –
NC(CSSCC(N)C(=O)O)C(=O)O (configuration not stated) | – | inactive
CC1CCCCC1NC(=O)COC(=O)c1c2c(nc3ccccc13)/C(=C/c1ccco1)CC2 (configuration not stated) | – | active: 10 µM
OCCOCCN1CCN(C(c2ccccc2)c2ccc(Cl)cc2)CC1 (configuration not stated) | inactive: -3.85% | –
COc1ccc(CNC(=O)c2nnn(CC(=O)Nc3cc(C)cc(C)c3)c2N)cc1 | inactive: 8.68% | –
Cc1cc(SCC(=O)c2cccc([N+](=O)[O-])c2)nc(=O)[nH]1 | – | active: 79.4 µM
O=C(O)c1ccccc1/C=N/NC(=O)c1cc(-c2ccco2)nc2ccccc12 | – | active: 35.5 µM
CCOc1cccc2c1N[C@@H](c1ccc(C(=O)O)cc1)[C@H]1CC=C[C@@H]21 | – | active: 3.98 µM
COc1ccc(-c2nc(Cn3c(=O)cc(C)c4c(C)nn(-c5ccccc5)c43)c(C)o2)cc1OC | inactive: 25.8% | –
C[C@@H]1O[C@@H](OC[C@H]2O[C@@H](Oc3c(-c4cccc(O)c4O)oc4cc(O)cc(O)c4c3=O)[C@H](O)[C@@H](O)[C@@H]2O)[C@H](O)[C@H](O)[C@H]1O | – | active: 7.08 µM
CN(C)CC[C@@H](c1ccc(Cl)cc1)c1ccccn1 | – | inactive
CC(N)C12CC3CC(CC(C3)C1)C2 (configuration not stated) | – | inactive
CC(=O)OCC1=C(C(=O)O)N2C(=O)C(NC(=O)Cc3ccccc3)C2SC1 (configuration not stated) | – | active: 44.7 µM
CCn1c(C)nc2cc(C(=O)N/N=C/c3ccc(O)c(O)c3O)ccc21 | – | active: 10 µM
COc1cccc(C(=O)c2cn(CC(=O)NCc3ccco3)c3nc(C)ccc3c2=O)c1 | – | active: 89.1 µM
N[C@@H](C(=O)N[C@@H]1C(=O)N2C(C(=O)O)=C(Cl)CS[C@H]12)c1ccccc1 | inactive: -3.96% [at 60.1 µM] | –
Cc1cc(NC(=O)CN2CCC(C)CC2)nc2c1c(=O)oc1ccccc12 | – | active: 89.1 µM
Cc1cc(=O)[nH]c2c(N=Nc3ccc(O)cc3)c(N)nn12 | – | active: 89.1 µM
CN1\C(=C/C=C/C=C/C=[N+](C)C)C(C)(C)c2ccccc21 | – | active: 50.1 µM
COC1C(OC(=O)/C=C/C=C/C=C/C=C/C(=O)O)CCC2(CO2)C1C1(C)OC1CC=C(C)C (configuration not stated) | inactive: -5.11% [at 60.1 µM] | –

SMILES | activity, negative = inhibition | Potency
CSc1ccc(NC(=O)CSc2nc3[nH]c(=O)cc(O)c3s2)cc1 | – | active: 56.2 µM
C=C(C)C(=O)Nc1cccc(C2=NOC3(C2)C[C@@H](C(N)=O)N(C(=O)c2ccc(Cl)cc2)C3)c1 (some centres not stated) | – | active: 35.5 µM
CC(C)NC[C@H](O)c1ccc(O)c(O)c1 | – | inactive
COc1cc2oc(=O)ccc2cc1O | inactive: 13.8% [at 60.1 µM] | –
Cc1cccc(-c2nn(C(=S)Nc3ccccc3)cc2-c2ccnc3ccccc23)n1 | inactive: 13.6% [at 60.1 µM] | –
COCCc1ccc(OCC(O)CNC(C)C)cc1 (configuration not stated) | – | inactive
COC(=O)c1cc(S(=O)(=O)NCC2CCN(Cc3cccc(F)c3)CC2)cn1C | – | inactive
O=C(NCCO)c1ccc2nc(-c3ccco3)c(-c3ccco3)nc2c1 | – | active: 25.1 µM
COC(=O)[C@@H]1[C@H]2C[C@H]3c4[nH]c5ccccc5c4CCN3C[C@H]2CC[C@@H]1O | inactive: 2.71% [at 19.4 µM] and inactive: -1.17% [at 19.4 µM] | –
CCOC(=O)C1=C(O)C(=O)N(Cc2ccccc2)C1 | inactive: -15.9% | –
O=C1CCC[C@@H]2Cc3nc4ccc(O)cc4cc3[C@@H]3CCN1[C@H]23 | inactive: -25% | –
CCOC(=O)c1sc2ccccc2c1S(=O)(=O)Nc1ccc(OC)c(Cl)c1 | inactive: 24.5% | –
O=C(O)c1cc(-c2ccc(/C=C3\NC(=O)N(c4ccccc4)C3=O)o2)ccc1Cl | – | active: 44.7 µM
C[C@@H]1CC=C[C@@H]2[C@H]1C(=O)N(Cc1ccccc1)[C@H]2c1ccccc1Br | inactive: -4.49% | –
O=C(NCc1ccc(Cl)cc1)C1CCN(S(=O)(=O)c2ccc(F)cc2)CC1 | inactive: 1.54% | –
CC[C@@]1(O)CC2CN(CCc3c([nH]c4ccccc34)[C@](C(=O)OC)(c3cc4c(cc3OC)N(C)C3[C@@](O)(C(=O)OC)C(OC(C)=O)[C@]5(CC)C=CCN6CC[C@@]43C65)C2)C1 (some centres not stated) | inactive: -13.1% [at 60.1 µM] | –
CC/C(=C(\c1ccccc1)c1ccc(OCCN(C)C)cc1)c1ccccc1 | – | inactive
Cc1noc(/C=C/c2ccc(-c3ccccc3Cl)o2)c1[N+](=O)[O-] | inactive: 420% | –
COc1cccc2c1C(=O)c1c(O)c3c(c(O)c1C2=O)C[C@](O)(C(=O)CO)C[C@@H]3O[C@H]1C[C@H](N)[C@@H](O)[C@H](C)O1 | inactive: -2.34% [at 60.1 µM] | –
CCc1ccc(CNC(=O)C2CCN(c3nc4ccccc4nc3C(F)(F)F)CC2)cc1 | inactive: 26.3% | –
CCSC[C@H](NC(=O)[C@H](C)N)C(=O)N[C@@H](CC(=O)O)C(=O)N[C@H](C(=O)N[C@@H](C)C(=O)N[C@H](C(=O)N[C@@H](CSCC)C(=O)N[C@H](C(=O)N[C@H](C(=O)N[C@@H](Cc1cnc[nH]1)C(=O)N[C@@H](CCCNC(=N)N)C(=O)N[C@@H](CC(C)C)C(=O)N[C@@H](C)C(=O)NCC(=O)N[C@@H](CC(C)C)C(=O)N[C@@H](CC(C)C)C(=O)N[C@@H](CO)C(=O)N[C@@H](CCCNC(=N)N)C(=O)N[C@@H](CO)C(=O)NCC(=O)NCC(=O)N[C@H](C(=O)N[C@H](C(=O)N[C@@H](CCCCN)C(=O)N[C@@H](CC(N)=O)C(=O)N[C@@H](CC(N)=O)C(=O)N[C@@H](Cc1ccccc1)C(=O)N[C@H](C(=O)N1CCC[C@H]1C(=O)N[C@H](C(=O)N[C@@H](CC(N)=O)C(=O)N[C@H](C(=O)NCC(=O)N[C@@H](CO)C(=O)N[C@@H](CCCCN)C(=O)N[C@@H](C)C(=O)N[C@@H](Cc1ccccc1)C(N)=O)C(C)C)[C@@H](C)O)C(C)C)C(C)C)C(C)C)[C@@H](C)O)C(C)C)[C@@H](C)O)[C@@H](C)O | inactive: 19.5% [at 60.1 µM] | –
